Measurements published in paper PMC4336329 (PLoS ONE, 2015).
The campaign covered roughly 310,000 compounds. About 2,200 (0.71%) showed an effect of 50% or more. Effects have a minus sign here. Some of the results follow.

target: human ether-à-go-go-related gene (hERG) potassium channel (human, UniProt Q12809); test: primary screen, population patch clamp on CHO cells stably expressing hERG
Sequence (Q12809 whole entry, looked up): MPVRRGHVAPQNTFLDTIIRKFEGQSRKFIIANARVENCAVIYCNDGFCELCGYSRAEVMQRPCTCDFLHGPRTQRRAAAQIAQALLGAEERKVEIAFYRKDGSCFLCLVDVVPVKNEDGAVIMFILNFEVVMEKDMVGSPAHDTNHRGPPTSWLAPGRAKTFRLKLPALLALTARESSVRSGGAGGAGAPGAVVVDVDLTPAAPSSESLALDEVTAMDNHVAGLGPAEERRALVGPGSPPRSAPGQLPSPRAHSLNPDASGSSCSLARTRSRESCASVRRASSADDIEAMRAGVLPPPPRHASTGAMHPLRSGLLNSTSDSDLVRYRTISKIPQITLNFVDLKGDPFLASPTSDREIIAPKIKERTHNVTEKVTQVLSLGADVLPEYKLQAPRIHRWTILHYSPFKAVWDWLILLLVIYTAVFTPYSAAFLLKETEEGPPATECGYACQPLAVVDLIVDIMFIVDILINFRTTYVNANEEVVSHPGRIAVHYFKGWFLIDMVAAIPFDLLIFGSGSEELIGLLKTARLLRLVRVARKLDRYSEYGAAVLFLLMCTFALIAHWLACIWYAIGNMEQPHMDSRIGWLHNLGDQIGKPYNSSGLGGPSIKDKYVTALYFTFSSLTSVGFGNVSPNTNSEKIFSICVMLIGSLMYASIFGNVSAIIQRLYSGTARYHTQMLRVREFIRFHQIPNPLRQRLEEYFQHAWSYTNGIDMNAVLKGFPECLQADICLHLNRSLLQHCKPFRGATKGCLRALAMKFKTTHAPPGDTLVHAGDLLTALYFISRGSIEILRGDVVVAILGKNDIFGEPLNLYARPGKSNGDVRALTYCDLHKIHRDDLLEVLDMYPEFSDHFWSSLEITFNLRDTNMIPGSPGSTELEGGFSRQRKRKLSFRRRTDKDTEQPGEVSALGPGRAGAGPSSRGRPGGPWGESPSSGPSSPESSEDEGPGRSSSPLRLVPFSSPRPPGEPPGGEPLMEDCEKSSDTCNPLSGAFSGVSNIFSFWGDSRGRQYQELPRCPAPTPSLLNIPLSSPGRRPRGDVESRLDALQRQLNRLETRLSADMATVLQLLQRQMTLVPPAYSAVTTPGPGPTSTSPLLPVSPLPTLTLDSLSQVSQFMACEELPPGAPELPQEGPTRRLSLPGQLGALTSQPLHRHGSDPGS

Structure (SMILES) | hERG current change (%, negative = inhibition) at 1uM [%]
CC(=O)N1N=C(c2ccc(C(C)(C)C)cc2)OC1(C)C | -0.346
COc1ccc(NC2CS(=O)(=O)CC2OC(=O)c2ccc(F)cc2)cc1 (centres unmarked) | 2.12
O=C(Nc1ccccc1)OCN1C(=O)c2ccccc2C1=O | 2.8
Cc1ccc(Cc2c[nH]c(=S)s2)cc1 | 17.7
Cc1cccc(NC(=O)COc2ccc(Br)cc2/C=N/O)c1 | 13.8
CC(C)n1cnc2c(NCc3ccccc3)nc(NCc3ccccc3)nc21 | 10.4
CCCc1n[nH]c(=O)c2c1nnn2Cc1ccccc1 | 9.72
O=C(c1ccc(Cl)cc1Cl)N1CCc2ccccc21 | 6.45
CCOc1cc(/C=N/Nc2cc(C)nc3ccc(C)cc23)ccc1O | 16.8
O=C(CNC(=O)c1ccccc1F)N/N=C/c1ccc2c(c1)OCO2 | 4.9
CCOC(=O)c1c(C)nc2c(c1-c1cc(OC)ccc1OC)C(=O)CC(C)(C)C2 | 13.7
COc1ccc(NC(=S)Nc2ccc(F)cc2)cc1 | 15.3
CSCC[C@H](NC(=O)[C@H](Cc1ccccc1)n1c(=O)[nH]c2ccccc2c1=O)C(=O)N1CCC[C@H]1C(=O)O | -10.3
O=C(NC(=S)N1CCN(c2ccc(F)cc2)CC1)C12CC3CC(CC(C3)C1)C2 | 7.92
CCOC(=O)c1[nH]c2ccc(OC)cc2c1NC(=O)N1CCOCC1 | 9.75
CC(C)c1ccc(/C=N/NC(=O)CC(=O)NCc2ccccc2)cc1 | 10.9
Cl.NCC(O)CN1CCN(Cc2ccccc2)CC1 (centres unmarked) | 12.2
Clc1ccc(-c2nnc(CSc3nnc(-c4cccs4)n3Cc3ccccc3)o2)cc1 | -0.743
COc1ccc(NC(=O)CN(C)C(=O)c2ccc(-c3ccccc3Cl)o2)cc1 | 1.28
O=C(CCc1nnc(CCc2ccccc2)o1)N1CCCC1c1nccs1 (centres unmarked) | 3.53
O=C(Nc1ccc(-c2nc3ccc(NC(=O)c4cccs4)cc3[nH]2)cc1)c1cccs1 | 13.3
Cc1ccc(N2CCN(C(=O)NC3CCCCC3)CC2)c(C)c1 | 10.5

Structure (SMILES) | hERG current change (%, negative = inhibition) at 1uM [%]
O=C(CN1CCN(S(=O)(=O)c2ccccc2)CC1)NC(=O)NCc1ccccc1 | 13
CC1(C)CC(Cc2nc(=S)[nH][nH]2)C(=O)O1 (centres unmarked) | 16.3
COCCn1c(=O)[nH]c(=O)c2c1nc(-c1cc(Br)c3c(c1)OCO3)n2Cc1ccccc1 | -2.58
O=C(NC(=S)Nc1ccccc1N1CCCC1)c1cccs1 | 4.24
COc1ccc(-c2cc3ccccc3n2CC(O)CN2CCC(C)CC2)cc1.O=C(O)C(=O)O (centres unmarked) | -49.8
CN(C(=O)CSc1nc2ccc([N+](=O)[O-])cc2s1)C1CCS(=O)(=O)C1 (centres unmarked) | -26
COc1ccc(N2CCN(C(=O)C3=NNC(=O)CC3)CC2)cc1 | 9.6
COc1ccc(OC)c(C2C3=C(CCCC3=O)NC3=C2C(=O)CCC3)c1 | 6.99
Cc1cc(N)ccc1N=Nc1c(C)n(C)n(-c2ccccc2)c1=O | 3.75
CCCn1c(N)c(N(CCOC)C(=O)CSCC(=O)Nc2ccc(C)cc2)c(=O)[nH]c1=O | -7.52
CCOC(=O)CSc1nnc(Cc2ccccc2)n1-c1cccc(Cl)c1 | -16.6
CNC(=O)c1ccc(CNC(=O)OCC(F)(F)F)cc1 | 4.96
CCOc1cc(S(=O)(=O)N2CCN(S(=O)(=O)CC)CC2)c(OCC)cc1-n1cnnn1 | 11.3
CC(C)(C)SCCNC(=O)CSCc1ccc([N+](=O)[O-])cc1 | -48.1
CC(/C=N/Nc1nc(C)cc(=O)[nH]1)=C\c1ccccc1 | -2.99
Cc1cc(C)n(C(=O)N(c2ccccc2)c2ccccc2)n1 | 14.6
NC(=O)Cn1cc(/C=N\NS(=O)(=O)c2ccc(Cl)cc2)c2ccccc21 | 1.24
C=CCOc1c(Br)cc(/C=N/n2c(CC)n[nH]c2=S)cc1Br | 11.7
CCOC(=O)N1CCN(C(=O)COC(=O)c2cc(Cl)c(O)c(Cl)c2)CC1 | 14.6
Cc1ccc(OCC(=O)N/N=C\c2ccc(O)c([N+](=O)[O-])c2)c([N+](=O)[O-])c1 | 8.26
CCCC(=O)Nc1nc2ccc(NC(=O)c3ccc(Br)o3)cc2s1 | 7.75
COc1ccc(NC(=O)CC2SC(N)=NC2=O)c([N+](=O)[O-])c1 (centres unmarked) | 24.4
